Reference: ChEMBL document CHEMBL1157539, “Thousands of chemical starting points for antimalarial lead identification” (Nature, 2010)
Whole data set: some 13,000 compounds, median “IFI” near 4, cut for the highest 2% near 17. The list shows a part of the results.

Assay: GSK_TCMDC: Inhibition Frequency Index (IFI). The number of non-kinase HTS assays where a compound showed > 50 % inhibition, expressed as a percentage of the number of such assays in which the compound was tested (-0 is zero)
Format: functional

SMILES	IFI
Cc1cc(N[C@@H](CC(C)C)C(=O)NCc2cccc(F)c2)nc(NCCc2ccc(F)cc2)n1	4.65%
O=C(c1ccccc1)N1CCC(CN2CCOC(c3ccccc3)(c3ccccc3)C2)CC1	2.33%
Fc1ccc(Nc2ccnc3cc(-c4ccc(CNCCN5CCOCC5)o4)ccc23)c(Cl)c1	7.86%
CC(=O)Nc1ccc(C(=O)Nc2ccc(-c3cccc(-c4nc5cc(C(F)(F)F)ccc5[nH]4)c3)cc2)cn1	4.67%
O=C(/C=C/c1ccc(Cl)c(Cl)c1)NCCCCCN1CCC(CCNC(=O)c2snnc2-c2ccccc2)CC1	6.29%
Cc1cccc2nc(-c3cccc(-c4ccc(NC(=O)NC(C)C)cc4)c3)[nH]c12	4.08%
CS(=O)(=O)N(c1ccc(F)cc1)c1cc(C(=O)N[C@@H](Cc2ccccc2)[C@H](O)CNCc2cccc(C(F)(F)F)c2)cc(N2CCCC2=O)c1	3.68%
CCCCCCNC(=O)C1Cc2c([nH]c3ccc(F)cc23)C2(CCN(Cc3ccccc3)CC2)N1 (stereo not drawn)	5.8%
FC(F)(F)c1ccc2[nH]c(-c3ccc(-c4cccc(CN5CCC(CCN6CCCCC6)CC5)c4)cc3)nc2c1	11.1%
Cc1ccc2nc(Cl)c3cc(C(=O)NCCCN4CCCC4)sc3c2c1	6.12%
Cc1cc(C(=O)CN2C(=O)NC3(CCCc4ccccc43)C2=O)c(C)n1Cc1ccc(F)cc1 (stereo not drawn)	5.45%
Cc1cc(C(=O)NC2CCN(Cc3ccccc3)CC2)ccc1-c1nc2cc(Cl)c(Cl)cc2[nH]1	0.74%
COc1cc2nc(N3CCC(CNC(=O)c4ccc(-c5ccc(C(=O)N(C)C)cc5C)cc4)CC3)nc(N3CCN(C)CC3)c2cc1OC	3.57%
O=S(=O)(NCCN1CCCC1)c1ccc(-c2ccc(CNCc3ccsc3)cc2)cc1	8.26%
CCN(CC)CCN(Cc1ccc(-c2ccc(Cl)cc2)cc1)C(=O)Cn1cc(CN(C)C)c(=O)nc1SCc1ccc(F)cc1	12.6%
CN(C)CC(O)C(c1ccccc1)c1ccc(Cl)cc1 (stereo not drawn)	0.7%
CC(C)n1ncc2c(C(=O)N3CCCC4CCCCC43)cc(C3CC3)nc21 (stereo not drawn)	7.02%
N#Cc1ccc(N/C(=N\c2ccc(-c3ccccc3)cc2)NC2CCCc3ccccc32)c(O)c1 (stereo not drawn)	1.47%
c1cc2[nH]c(CCCc3nc4cc(C5=N[C@H]6CCCC[C@H]6N5)ccc4[nH]3)nc2cc1C1=N[C@@H]2CCCC[C@@H]2N1	-0%
CCc1cn(CCOC)c2ccc(C(=O)N[C@@H](Cc3ccccc3)[C@H](O)CNC(C)(C)CCCC(C)C)cc12	5.07%
CC(CCNc1c2ccccc2nc2ccccc12)N1CCN(C)CC1 (stereo not drawn)	2.22%
CCN(CCCN1CCCCC1)c1cc(C)nc(Nc2cc(Cl)cc(Cl)c2)n1	6.33%

SMILES	IFI
CCOc1ccccc1CNc1nccc(NCc2ccccc2OC)n1	15.4%
COc1ccc2nccc(NC(=O)N3CCC(NCc4cc5c(F)ccc(F)c5[nH]4)CC3)c2n1	2.24%
CC(C)(Oc1ccc(Cl)cc1)C(=O)NCCC1CCN(CCCCCNC(=O)/C=C/c2ccc(Cl)c(Cl)c2)CC1	12.3%
Cc1onc(-c2ccccc2)c1-c1nc(NCc2ccccc2Cl)no1	3.13%
COc1cc2nc(NCCc3ccccc3)nc(NCc3ccc(C#N)cc3)c2cc1OC	11.2%
c1ccc(-c2ccc(CNCCCNc3nc4ccccc4[nH]3)cc2)cc1	9.46%
Cc1c(C)c2c(c(C)c1O)CC[C@](C)(C(=O)N1CCC(CCN3CCC(c4c[nH]c5ccccc45)CC3)CC1)O2	5.88%
Oc1ccc2[nH]cc(C3CCN(CCCNCc4ccc(-c5ccccc5)cc4)CC3)c2c1	4.14%
COc1cccc(Nc2nc(N)c3ccccc3n2)c1	3.05%
OC(CNCc1ccccc1Oc1ccccc1)c1cccc(C(F)(F)F)c1 (stereo not drawn)	4.1%
COc1ccc2nccc(NCC3(O)CCC(NCc4ccc5c(n4)NC(=O)CS5)CC3)c2n1 (stereo not drawn)	2.29%
CC(C)c1ccc(NC(=O)c2ccc(CN3CCCN(Cc4cccc(O)c4)CC3)cc2)cc1	13.6%
Nc1ncc(-c2ccc(Br)cc2)c(N)n1	-0%
CCCN(Cc1nnc(-c2ccco2)o1)C(=O)C1CCCN(C(=O)c2ccc(Cl)cc2)C1 (stereo not drawn)	2.25%
Cc1c(C(=O)C2CC2CN2CCC(N3CCCCC3)CC2)sc2ccccc12 (stereo not drawn)	7.84%
N#Cc1ccc2c(c1)CCN(CCC1CCC(NC(=O)c3ccc(-c4ccccn4)s3)CC1)CC2 (stereo not drawn)	2.67%
Oc1ccc(Cl)c2c1C(c1ccccc1)=NCC2	0.75%
O=C(CCNc1ccnc(NCC2CCCCC2)n1)Nc1ccccc1	8.89%
COc1ccc(CCn2c(=N)c(C(=O)NCc3ccc(C)cc3)cc3c(=O)n4ccccc4nc32)cc1	0.87%
FC(F)(F)c1ccc2[nH]c(-c3ccc(-c4cccc(CNCc5ccccc5)c4)s3)nc2c1	11.4%
CC(Cc1ccc(NC(=O)c2ccc(CC(C)NCc3ccc(Cl)cc3)cc2)cc1)NCCc1cccc(Cl)c1 (stereo not drawn)	7.8%
CC(C)(C)SC1SC(SC(C)(C)C)C(OC(=O)c2ccccc2)C(OC(=O)c2ccccc2)C1OC(=O)c1ccccc1 (stereo not drawn)	-0%

SMILES	IFI
O=C(NCCCCCN1CCC(c2c[nH]c3ccccc23)CC1)Nc1ccc(Cl)cc1Cl	7.14%
O=C(/C=C/c1ccc(Cl)c(Cl)c1)N1CCCC(CCCN2CCC(c3c[nH]c4ccccc34)CC2)C1 (stereo not drawn)	8.76%
COc1c(C2CCN(CCCCNC(=O)c3ccc(NC(=O)c4ccc(C#N)cc4)cc3)CC2)ccc2c1CCCC2	9.26%
CC1(C)S(=O)(=O)CC(O)CS1(=O)=O	-0%
N=C(N)c1ccc(C(=O)Nc2cccc(C(=N)N)c2)cc1	-0%
Cc1cc(Oc2cc(NC(=O)c3sc4ncn(Cc5ccccc5F)c(=O)c4c3C)cc([N+](=O)[O-])c2)ccc1Cl	0.88%
N#Cc1cc(C(=O)c2cc(Cl)ccc2O)cn(-c2cccc(C(F)(F)F)c2)c1=O	7.44%
OCC1CCN(Cc2ccc(-c3ccc(-c4nc5cc(F)ccc5[nH]4)s3)cc2)CC1	2.97%
CCC(C)NS(=O)(=O)c1ccc2nc(Nc3ccc(C)c(Cl)c3)n([C@H](C)C(C)(C)C)c2c1 (stereo partly drawn)	7.41%
CCc1ccc(C2CCN(CCCCNC(=O)c3ccc(NC(=O)c4ccc(Cl)cc4)cc3)CC2)c(OC)c1	7.89%
COc1cccc2c(NN=Cc3ccc(Cl)cc3)ccnc12	2.96%
COc1ccccc1CCNc1nc(C)cc(N[C@@H](Cc2ccccc2)C(=O)NCCc2ccccc2)n1	11.9%
Nc1nc(N)c2c(ccc3c2ncn3Cc2ccccc2)n1	6.43%
NC(=O)c1ccsc1NC(=O)CNC(c1ccccc1)c1ccccc1	2%
CCNc1cc(C(=O)N[C@@H](Cc2ccccc2)[C@H](O)CN[C@@H](C)c2cccc(OC)c2)cc(N2CCCC2=O)c1	0.72%
Cn1cc(C2CCN(CCCCNC(=O)c3ccc(-c4ccc(C(F)(F)F)cc4)c(CO)c3)CC2)c2ccccc21	3.6%
CC(C)(Oc1c(C2CCN(CCCCNC(=O)c3ccc(-c4ccc(C#N)cc4)cc3)CC2)ccc2c1CCCC2)C(N)=O	6.82%
O=C(Nc1cccc(CN2CCCN(Cc3ccc(O)cc3)CC2)c1)c1cc2ccccc2s1	4.48%
CN=C(S)NN=C(C)c1ccccn1	5.84%
CCc1c[nH]c2c(N(c3ccccc3)S(C)(=O)=O)cc(C(=O)N[C@@H](Cc3ccccc3)[C@H](O)CNC(C)(C)CCCC(C)C)cc12	14.5%
FC(F)(F)c1ccc2[nH]c(-c3ccc(-c4cccc(CNCC5CCCO5)c4)cc3)nc2c1 (stereo not drawn)	6.8%
Fc1ccc2[nH]c(-c3ccc(-c4ccc(CNCc5cnn(-c6ccccc6)n5)cc4)cc3)nc2c1	14.5%

SMILES	IFI
O=C(Nc1ccc(N2CCNCC2)cc1)c1ccn2ncc(-c3cccc(Cl)c3)c2n1	11.1%
CC(=O)Nc1nc(C(=O)Nc2cccc(-c3cccc(-c4nc5cc(F)ccc5[nH]4)c3)c2)cs1	2.61%
N#Cc1ccc(-c2ccc(C(=O)NC3CCN(CCN4CCC(c5cn(CCOC6CCCCO6)c6ccccc56)CC4)CC3)cc2)cc1 (stereo not drawn)	8.11%
c1ccc(Oc2ccc(Nc3ccnc4ccc(-c5ccccn5)cc34)cc2)cc1	1.61%
CC(CCON1C(N)=NC(N)=NC1(C)C)c1ccc(Cl)cc1 (stereo not drawn)	3%
CN(C)c1ccc2c(c1)Sc1cc(N(C)C)ccc1N2C(=O)CCCC(=O)O	7.14%
CN(C)CCCOc1ccccc1CN1CC[C@H](NC(=O)c2ccc(Cl)c(Cl)c2)C1	8.82%
CCCc1ccc(C2CCN(CCCCNC(=O)c3ccc(NC(=O)c4ccc(Cl)cc4)cc3)CC2)cc1	3.64%
COCCNCc1cccc(-c2ccc3c(Nc4ccc(Oc5cccnc5)cc4)ccnc3c2)c1	9.92%
O=S1(=O)NC2(CCN(CCc3ccc(Cl)cc3)CC2)Nc2cc(F)cc(F)c21	2.04%
CCCCCN1CCCN(Cc2cccc(NC(=O)c3ccc4ccccc4c3)c2)CC1	4.11%
CCc1ccc(-c2nc3cc(NC(=O)c4ccc([N+](=O)[O-])o4)ccc3o2)cc1	-0%
CCCCCCNc1c2ccccc2nc2ccccc12	7.8%
Cc1cc(N[C@@H](Cc2ccccc2)C(=O)NCCc2ccccc2)nc(NCC2CCCCC2)n1	11.4%
CNC(=O)C(C)N(c1ccc(Cl)cc1)c1nc(C(C)(C)C)cs1 (stereo not drawn)	4.76%
CC(=O)c1ccc2c(c1)CCN(CCC1CCC(NC(=O)c3cc4ccccc4[nH]3)CC1)CC2 (stereo not drawn)	11.6%
O=C(Nc1cccc(N2CCC(NCc3cccnc3)CC2)c1)c1cccc(C(F)(F)F)c1	-0%
Cc1cccc(-c2nn(-c3ccccc3)cc2C(=O)Nc2nnc(C)o2)c1	4.08%
Cc1noc(C)c1-c1cccc(CNCc2cccc(-c3ccc(-c4nc5ccccc5[nH]4)cc3)c2)c1	7.69%
Cc1cc(N2Cc3ccccc3C2)nc(Nc2ccc(S(=O)(=O)N3CCOCC3)cc2)n1	0%
Cc1cc(C)cc(Oc2c(C(F)(F)F)oc3c(CN4CC(C)OC(C)C4)c(O)ccc3c2=O)c1 (stereo not drawn)	-0%
CC(C)COc1ccc(Cl)cc1Cc1nc(-c2nc3ccc(CN4CCCC4)cc3[nH]2)co1	16.1%
